Data: PubChem BioAssay AID1159614 (National Center for Advancing Translational Sciences (NCATS), 2016)
Among all 45,000 compounds or so, about 65 (0.1%) were called active. Calls follow the shape of the dose curve; as a rule, active = well fitted activation curve with a large enough effect; inconclusive = small, poorly fitted or top-dose-only effect; inactive = no such curve, though single readings can be large or run the other way. The list shows a part of the results.

Biological target: Galactocerebrosidase (Homo sapiens) (UniProt P54803)
Assay: A Novel Cell-Based Assay to Identify Small Molecules for B -Galactocerebrosidase; also: 0% is about no effect; nearly all actives have a fitted effect of over 65% in size
Settings: 145M-Twi-hGALC-G270D cells, HMU-beta-Gal fluorescence, 48 h; series mostly up to 57.5 µM; activation: at the top concentration
Procedure, shortened: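 qHTS, 1536-well; 145M-Twi-hGALC-G270D cells (WT line also made) in DMEM/F12 + 10% FBS; compound incubation on live cells; HMU-β-gal 0.1 mM final, pH 5.2, NaTC; carbonate stop; fluorescence increase = enhanced residual activity.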

Sequence of UniProt P54803 (P54803 whole entry, looked up): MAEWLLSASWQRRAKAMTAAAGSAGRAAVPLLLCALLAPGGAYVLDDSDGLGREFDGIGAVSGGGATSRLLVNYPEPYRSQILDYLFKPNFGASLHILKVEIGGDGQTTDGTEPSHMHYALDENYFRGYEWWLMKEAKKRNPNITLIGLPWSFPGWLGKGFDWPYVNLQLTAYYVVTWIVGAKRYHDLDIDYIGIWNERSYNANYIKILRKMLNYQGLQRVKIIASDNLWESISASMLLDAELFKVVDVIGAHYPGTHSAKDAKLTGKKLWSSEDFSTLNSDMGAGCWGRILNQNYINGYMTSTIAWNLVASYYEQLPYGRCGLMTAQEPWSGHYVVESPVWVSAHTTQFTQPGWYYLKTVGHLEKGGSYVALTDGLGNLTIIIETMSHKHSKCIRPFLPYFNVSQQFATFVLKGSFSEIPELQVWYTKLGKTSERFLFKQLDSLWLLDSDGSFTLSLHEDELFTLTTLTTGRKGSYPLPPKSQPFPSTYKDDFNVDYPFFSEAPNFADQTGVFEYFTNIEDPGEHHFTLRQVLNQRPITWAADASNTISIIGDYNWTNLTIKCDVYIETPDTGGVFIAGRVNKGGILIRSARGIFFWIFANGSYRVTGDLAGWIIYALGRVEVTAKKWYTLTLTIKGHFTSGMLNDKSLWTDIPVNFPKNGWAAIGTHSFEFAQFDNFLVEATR

activation, inactive:
Cc1cccc2sc(N(CCN(C)C)C(=O)c3ccc4c(c3)OCCO4)nc12 -4.71%
COc1ccc(Cn2c(=O)n(Cc3ccco3)c(=O)c3oc4ccccc4c32)cc1 -5.94%
Cc1nc2cc(-c3ccccc3)nn2c(C)c1CCC(=O)Nc1ccc(F)cc1F -24.2%
Cc1ccc(CNC(=O)CCCn2c(=O)c3ccccc3n(CC(=O)Nc3ccc(C)cc3)c2=O)cc1 -2.92%
CCC(C(=O)Nc1ccc(C)c(C)c1)n1c(=O)c(C(F)(F)F)nc2ccccc21 (stereo unspecified) 6.71%
COc1ccc(-c2nc(CS(=O)(=O)CC(=O)NCc3ccccc3Br)c(C)o2)cc1 -13.7%
O=C(NCCCN1CCCCCC1)c1ccc2c(c1)sc1nc(-c3ccccc3)cn12 13%
COc1cccc(NC(=O)Cn2c(=O)n(CCC(=O)NCCc3ccc(Cl)cc3)c(=O)c3ccccc32)c1 -6.47%
CCOC(=O)c1c(NC(=O)COc2ccc(Cl)cc2C)sc2c1CCCCC2 -23.4%
COc1cc(-c2noc(-c3ccc(NCC4CCCO4)c([N+](=O)[O-])c3)n2)cc(OC)c1OC (stereo unspecified) -3.07%
COc1ccc(NC(=O)CC2C(=O)N(c3ccc(OC)cc3)C(=O)N2CCC2=CCCCC2)cc1 (stereo unspecified) -9.66%
Cc1ccc(C)c(Nc2cc(C(=O)NC3CCCC3)c3ccccc3n2)c1 -1.34%
COc1ccc(CCNC(=O)Cc2c(C)c3cc4c(C(C)(C)C)coc4c(C)c3oc2=O)cc1 -9.13%
Cl/C(=C\n1cncn1)c1ccc(Cl)cc1Cl -7.18%
COc1cc(NC(=O)CSc2nc3ncccc3o2)cc(OC)c1 -17%
CC(C)(C)C1CCc2c(sc(NC(=O)Cn3nnc(-c4ccccc4F)n3)c2C#N)C1 (stereo unspecified) -10.7%
CCOC(=O)c1cc(-c2ccccc2)n(-c2cccc(C(=O)Nc3ccc(OC)cc3)c2)c1C -9.93%
CCOc1ccc(N(C(=O)Cn2nnc3ccccc32)C(C(=O)NCc2ccccc2)c2ccc(OC)cc2)cc1 (stereo unspecified) -12.6%
O=C(Cn1c(=O)c2cccn2c2ccccc21)Nc1cc(F)ccc1F -13.8%
COc1ccc(N2CCN(C(=O)c3cn(CC(C)C)c(=O)c4c3c3ccccc3n4C)CC2)cc1 -23.7%
CC(=O)NCc1c(I)c(NC(C)=O)c(I)c(C(=O)O)c1I -16.1%
CCc1ccc(-c2nn(CC(=O)Nc3ccccc3)c3c2cnc2ccc(F)cc23)cc1 -8.75%
CCN(CC)CCNC(=O)c1cn(CC)c2ccc(S(=O)(=O)N3CCOCC3)cc2c1=O -18%
Cc1ccc(CCNC(=O)Cn2nc(-c3ccc(C)cc3)ccc2=O)cc1 -15.1%
COc1ccc(OCC(=O)OCc2cc(=O)n3nc(C4CCCCC4)sc3n2)cc1 -13.7%
CC(=O)Nc1cccc(NC(=O)C(=O)NCCc2sc(-c3ccccc3)nc2C)c1 -19.3%
